Experimental findings from PubChem BioAssay AID1963576 (National Center for Advancing Translational Sciences (NCATS), 2024) are described below.

Each structure is given as a SMILES string. About 60 (0.1%) of roughly 46,000 compounds were called active. Another 3% or so got no clear call; they are omitted. Calls come from the whole dose curve; as a rule, active = well fitted inhibition curve with a large enough effect; inconclusive = small, poorly fitted or top-dose-only effect; inactive = no such curve, though single readings can be large or run the other way. The list shows a part of the results.

A short description of the experiment: Primary qHTS assay for Inhibitors of ovarian cancer metastasis using an organotypic tumor microenvironment (TME) model.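 For activity change, negative = inhibition: plate controls were DMSO wells for no effect and tomatine positive control wells for full effect.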 Note: nearly all actives have a fitted effect of over 65% in size. The conditions noted are these: SKOV3ip1-GFP adhesion/invasion on 3D omental model, fluorescence; series mostly up to 45.8 µM; activity change, negative = inhibition: at the top concentration. The method in brief:
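Primary human omental fibroblast/mesothelial 3D culture pre-formed 48 h. SKOV3ip1-GFP cells added with compounds (0.36-46 umol/L), incubated 2 h RT/16 h 37 C, fixed; GFP cells quantified at 488/509 nm.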
In general terms: In qHTS, concentration-response curves come from the screen itself.
Take `CC(C)(O)c1cc2nc(-c3cnc(N)nc3)nc(N3CCOCC3)c2s1`: the “activity change, negative = inhibition” value was inactive: 0.566%.

As to `Cc1ccc(C)c(NC(=O)Cn2cc(C(=O)c3ccc(Cl)cc3)c(=O)c3ccc(C)nc32)c1`, the result was inactive.

With `O=C(CC1C(=O)OCCN1Cc1ccccc1)Nc1ccc(F)cc1` (configuration not stated), the “activity change, negative = inhibition” value is inactive: 1.54%.

On to `Cc1c(Cn2c(C)nc3c(C(=O)O)cc(N4CCOCC4)cc32)cccc1C(F)(F)F`, for which the “activity change, negative = inhibition” value was inactive: 15.8%.

Take `CC(=O)c1ccc(NC(=O)CSc2cn(CC(=O)N3CCCCCC3)c3ccccc23)cc1`: the “activity change, negative = inhibition” value was inactive: -15.6%.

On to `Cc1cccc(-c2nc3c4ccccc4nc(NCc4ccc(Cl)cc4)n3n2)c1`, for which the outcome was inactive.

With `CS(=O)c1ccc(-c2nc(-c3ccc(F)cc3)c(-c3ccncc3)[nH]2)cc1` (configuration not stated), the “activity change, negative = inhibition” value was inactive: 29.5% [at 92.2 µM].

In the case of `CC(C)Cn1c(=O)c2sccc2n2c(CCCC(=O)NCc3ccccc3Cl)nnc12`, the “activity change, negative = inhibition” value was inactive: -2.51%.

As for `CCc1ccc2oc(-c3cc(NC(=O)C(C)C)cc(C)c3O)nc2c1`, the “activity change, negative = inhibition” value is inactive: 21.7%.

In the case of `COc1ccc(NC(=O)CSc2oc(-c3ccco3)nc2S(=O)(=O)c2ccc(Br)cc2)c(OC)c1`, the “activity change, negative = inhibition” value is inactive: 1.51%.

Turning to `CCOC(=O)N1CCC(NC(=O)c2cnn(-c3cccc(Cl)c3C)c2C2CCN(C(=O)OC(C)(C)C)CC2)CC1`, the “activity change, negative = inhibition” value is inactive: -18.2%.

Consider `O=C(Cn1cc(SCc2ccc(C(F)(F)F)cc2)c2ccccc21)N1CCCC1`, for which the “activity change, negative = inhibition” value was inactive: -33.4%.

On to `CCCOc1ccc(-c2nonc2NC(=O)c2oc3ccc(C)cc3c2C)cc1OCCC`, for which the “activity change, negative = inhibition” value is inactive: 7.31%.

As for `CC(=O)N1c2ccc(S(=O)(=O)N3CCCCCC3)cc2CC1C(=O)NCc1ccc(Cl)cc1` (configuration not stated), the outcome was inactive.

For the compound `COc1cccc(CNC(=O)C2CCN(S(=O)(=O)c3cn(C)cn3)CC2)c1`, the “activity change, negative = inhibition” value was inactive: 36.1%.

Take `COc1ccc(OC)c(NC(=O)c2cc(CN3CCCC3)on2)c1`: the “activity change, negative = inhibition” value is inactive: 9.32%.

For the compound `O=C(CC1C(=O)OCCN1Cc1ccccc1)Nc1cccc(C(F)(F)F)c1` (configuration not stated), the result was inactive.

Consider `COc1cccc(CN2CCc3nc(N4CCN(c5ncccn5)CC4)ncc3C2)c1`, for which the “activity change, negative = inhibition” value was inactive: 2.5%.

On to `CCc1sc(Nc2cccc(Cl)c2C)nc1-c1cc2cccc(OC)c2oc1=O`, for which the “activity change, negative = inhibition” value is inactive: -3.03%.

Turning to `CN1CCN(c2nc3c(S(=O)(=O)c4ccc(Br)cc4)nnn3c3ccsc23)CC1`, the “activity change, negative = inhibition” value is inactive: -3.23%.

Regarding `Oc1ccc(Cl)cc1C1=Nc2ccccc2N=C(c2cccc(Br)c2)C1`, the “activity change, negative = inhibition” value is inactive: -24.9%.

Turning to `CCC(Oc1ccccc1)C(=O)Nc1ccc2oc(-c3ccc(OC)cc3)nc2c1` (configuration not stated), the “activity change, negative = inhibition” value is inactive: -1.91%.

For the compound `Cc1cccc(CSc2cn(CC(=O)N3CCCC3)c3ccccc23)c1`, the “activity change, negative = inhibition” value is inactive: 7.03%.

Regarding `CCc1ccc2oc(-c3cccc(NC(=O)c4ccc(N5CCC(C)CC5)c([N+](=O)[O-])c4)c3)nc2c1`, the “activity change, negative = inhibition” value was inactive: 7.02%.

In the case of `Cc1ccccc1CNC(=O)Cn1ncn2nc(-c3cccs3)cc2c1=O`, the “activity change, negative = inhibition” value was inactive: -10.4%.

As to `CCOc1ccccc1CNC(=O)c1cc2cc(S(=O)(=O)N3CCCCC3)ccc2n1C`, the call was inactive.

Consider `COc1cccc(NC(=O)Cn2cc(S(=O)(=O)N3CCCC3)c(S(=O)(=O)N3CCCC3)c2)c1`, for which the “activity change, negative = inhibition” value was inactive: 5.91%.

Regarding `CC(=O)Nc1ccc(NC(=O)CCNS(=O)(=O)c2cccc3nsnc23)cc1`, the result was inactive.

Regarding `CCOc1cccc(CC(=O)N2CCc3c([nH]c4ccccc34)C2c2ccc(F)cc2)c1OCC` (configuration not stated), the “activity change, negative = inhibition” value was inactive: -3.41%.

As for `CCOc1ccc(N(CC)S(=O)(=O)N2CCCC(C(=O)NCc3ccccc3Cl)C2)cc1` (configuration not stated), the “activity change, negative = inhibition” value is inactive: -0.481%.

In the case of `O=S(=O)(c1ccccc1)n1nc(-c2ccccc2)nc1NCc1ccc(Cl)cc1`, the compound was classed as inactive.

Turning to `Cc1ccc(CNC(=O)CSCc2ccc(F)cc2)cc1`, the “activity change, negative = inhibition” value is inactive: 3.96%.

For the compound `Cc1cc(N2CCCCC2)nc2ccc(NC(=O)/C=C/c3ccccc3OC(C)C)cc12`, the outcome was inactive.

As to `O=C(COc1ccc(S(=O)(=O)NC2CCCCC2)cc1)Nc1ccc(C(F)(F)F)cc1`, the “activity change, negative = inhibition” value was inactive: -7.25%.

Take `O=C(Cc1cccc([N+](=O)[O-])c1)NCc1nc2cccnc2n1Cc1ccc(F)cc1`: the compound was classed as inactive.

As to `COc1cc(C2N=C(N)Nc3nc4ccccc4n32)ccc1OCCC(C)C` (configuration not stated), the result was inactive.

In the case of `CCc1ccccc1NC(=O)c1ccc2nc(CCc3ccccc3)oc2c1`, the “activity change, negative = inhibition” value was inactive: 7.44%.

Turning to `Cc1ccc(C(=O)COC(=O)C(CC(C)C)NC(=O)C2CCC(C)CC2)cc1` (configuration not stated), the “activity change, negative = inhibition” value was inactive: -4.59%.

Consider `CCCCNC(=O)CCn1c(=O)c2ccccc2n(Cc2ccccc2C#N)c1=O`, for which the call was inactive.

Consider `CCC(=O)N1CCc2cc(Br)cc(S(=O)(=O)N3CCCC(C(=O)Nc4cccc(Cl)c4C)C3)c21` (configuration not stated), for which the compound was called inactive.

As to `CCOc1ccc(CC(=O)Nc2c(C(=O)c3ccc(C)cc3)oc3ccccc23)cc1OCC`, the “activity change, negative = inhibition” value is inactive: 7.42%.

`Cc1ccccc1-c1nc(CS(=O)(=O)CC(=O)N2CCN(c3ccccc3)CC2)c(C)o1`: the “activity change, negative = inhibition” value is inactive: 9.89%.

For `CCOc1ccc(NS(=O)(=O)c2cc(Br)cc3c2N(C(=O)C2CC2)CC3)cc1`, the “activity change, negative = inhibition” value was inactive: 9.54%.

In the case of `CCCN(CCC)CCCNC(=O)C1CCCN(S(=O)(=O)c2cccc3nsnc23)C1` (configuration not stated), the “activity change, negative = inhibition” value is inactive: 0.54%.

Regarding `Cn1c(=O)cc(OCCCC(=O)Nc2ccc(F)cc2)c2ccccc21`, the “activity change, negative = inhibition” value is inactive: 5.1%.

With `Cc1ccc2cccc(NC(=O)c3ccc(-c4cccc([N+](=O)[O-])c4)o3)c2n1`, the “activity change, negative = inhibition” value was inactive: 9.17%.

Turning to `COc1cc(OC)c(NC(=O)NC(C)c2c(-n3cccc3)sc(C)c2C)cc1Cl` (configuration not stated), the “activity change, negative = inhibition” value is inactive: -7.96%.
